# ± gives the standard deviation of the averaged measurements. Over roughly 33,000 sequences, “E-score (dimensionless, -0.5 to 0.5)” has its median near -0.046; the highest 2% begin near 0.36. Some of the results follow.
# Tested on: T1, SpTbr T-box DNA-binding domain (GST fusion)
# T1 sequence: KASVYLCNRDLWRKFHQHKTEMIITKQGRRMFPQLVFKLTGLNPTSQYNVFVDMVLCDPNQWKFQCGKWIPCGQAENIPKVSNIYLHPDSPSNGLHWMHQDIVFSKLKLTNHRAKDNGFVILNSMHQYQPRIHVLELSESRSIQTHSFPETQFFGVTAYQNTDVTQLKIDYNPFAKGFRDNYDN
# Experiment: PBM E-score of 8-mer (E-score (dimensionless, -0.5 to 0.5)); Tbr is Tbrain of the sea star Patiria miniata (Pm) or the sea urchin Strongylocentrotus purpuratus (Sp); higher = stronger binding preference; most listed sequences are background and not binding sites
# Settings: the construct has about 5 more residues each side
# Method in brief: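 Each ungapped 8-mer received an enrichment E-score from the Universal PBM Analysis Suite, averaged over duplicate arrays. The proteins were Tbr T-box DNA-binding domains, covering the whole T-box plus about five flanking residues, fused to GST and expressed in BL21 E. coli at 20 °C before glutathione affinity purification. Universal Agilent oligonucleotide arrays were made double-stranded by primer extension and incubated with 200 nM protein in PBS (pH 7.5). The arrays were then scanned and quantified, and every 8-mer was scored from probe intensities.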
row,Sequence,PBM E-score of 8-mer
1,ACAGCCGG,-0.111 ± 0.049
2,ACCAAGCA,-0.22 ± 0.018
3,AGTTATGC,-0.0697 ± 0.062
4,ACCGCCTA,-0.0533 ± 0.038
5,ACAGCACC,0.148 ± 0.0087
6,CCATTTTC,-0.121 ± 0.018
7,GGTTTGGA,-0.166 ± 0.017
8,GTGAGGGA,0.203 ± 0.055
9,TAAGCACA,-0.0209 ± 0.012
10,AATTCTGA,-0.152 ± 0.013
11,GTCCTCAA,-0.212 ± 0.03
12,CGGGTCCC,0.0456 ± 0.028
13,CAACGTCG,-0.0212 ± 0.069
14,GACGCGGA,-0.092 ± 0.043
15,ATGTGCTC,-0.253 ± 0.025
16,ATCCCATG,-0.172 ± 0.038
17,ATACACTC,-0.0398 ± 0.01
18,CTCAAGGC,-0.137 ± 0.013
19,ATCCAGCA,-0.148 ± 0.032
20,CCGCATAC,-0.233 ± 0.0039
21,GGTCAGCA,-0.152 ± 0.089
22,GCGTATAC,0.0364 ± 0.049
23,AGGAGAAC,-0.0962 ± 0.037
24,CGTTGTAC,-0.1168 ± 0.00054
25,ATGGAGTA,-0.255 ± 0.048

row,Sequence,PBM E-score of 8-mer
1,ACACAAAG,0.16 ± 0.035
2,CAAGTATG,0.147 ± 0.0066
3,TCGAGCGA,0.0225 ± 0.056
4,CAAATCAA,0.0155 ± 0.081
5,CCGCACAC,0.248 ± 0.033
6,AGATCGGA,-0.0303 ± 0.042
7,CCTGATTA,-0.0395 ± 0.011
8,AATTGTCC,-0.185 ± 0.1
9,ACAGTACA,0.0218 ± 0.031
10,ATGTGGCG,0.283 ± 0.072
11,GCCCTCGC,0.198 ± 0.083
12,GTGTATAA,-0.0246 ± 0.013
13,CCCGGGCC,-0.283 ± 0.013
14,CCGACTGA,-0.112 ± 0.0051
15,CACACTCA,0.407 ± 0.0072
16,CCGACGCC,0.24 ± 0.058
17,AATAGGGT,-0.142 ± 0.03
18,AGCCTCCC,-0.147 ± 0.11
19,ATACACTA,-0.106 ± 0.035
20,GAAGTCAA,-0.141 ± 0.046
21,AGCCTTTC,-0.149 ± 0.048
22,ATTCAACA,-0.131 ± 0.039
23,CCTTTAAC,0.141 ± 0.02
24,AATCCTTA,-0.108 ± 0.083
25,ATTCGCGA,0.392 ± 0.02

row,Sequence,PBM E-score of 8-mer
1,CCCCCCCG,-0.164 ± 0.042
2,AAAAGCCT,-0.0255 ± 0.047
3,ATAGTCAT,-0.0789 ± 0.01
4,CACGCTCC,0.187 ± 0.011
5,CAGATATA,-0.19 ± 0.057
6,CGAATCCG,0.0539 ± 0.017
7,AACAGTAC,0.0287 ± 0.021
8,CTTGAGGC,-0.131 ± 0.038
9,ATTGTACA,-0.205 ± 0.086
10,TTATGCAA,-0.26 ± 0.022
11,AAGTACGC,-0.0954 ± 0.029
12,ACGCTGGC,0.042 ± 0.073
13,GTGACAGA,0.283 ± 0.055
14,ACTGAACG,-0.268 ± 0.034
15,CGCCGGCA,0.169 ± 0.074
16,CAAAGGCC,-0.258 ± 0.044
17,ACGGGCCA,-0.135 ± 0.046
18,GACTGTGC,-0.124 ± 0.033
19,CCCCTGCG,-0.107 ± 0.065
20,CCGACCCA,-0.242 ± 0.0089
21,GAAACGAC,0.116 ± 0.046
22,AAAAAAAC,-0.0917 ± 0.073
23,ACCCCGTA,-0.00587 ± 0.023
24,CAAGGACG,-0.152 ± 0.084
25,ACCTAACA,0.302 ± 0.039

row,Sequence,PBM E-score of 8-mer
1,GCTGCACA,0.0656 ± 0.1
2,ACTTGAGG,-0.00245 ± 0.078
3,AGACAGTG,0.142 ± 0.02
4,AGACTTTA,-0.129 ± 0.0041
5,GAAATCTA,-0.265 ± 0.056
6,AGCACAGA,-0.133 ± 0.055
7,ATGTCTGG,-0.0896 ± 0.023
8,AGAATTCT,-0.188 ± 0.1
9,CCTGTCGC,0.278 ± 0.013
10,AGGGAATG,-0.277 ± 0.081
11,CCTTTTTC,-0.0994 ± 0.085
12,GTAGTTTA,0.0126 ± 0.092
13,GAATAGCA,0.189 ± 0.0036
14,GAACTGGC,-0.193 ± 0.04
15,CCGAATCG,-0.0388 ± 0.081
16,AGACCACA,-0.00177 ± 0.065
17,AGAAGAGC,-0.187 ± 0.051
18,ACTACGCG,0.116 ± 0.038
19,AAACGTCG,-0.117 ± 0.014
20,AATTATGT,-0.0597 ± 0.041
21,ACCGTTCC,-0.000825 ± 0.11
22,CCGTGAGC,0.167 ± 0.05
23,AGAGACGA,-0.123 ± 0.088
24,GCAGTGGC,0.136 ± 0.063
25,CACCAGTA,0.0243 ± 0.054

row,Sequence,PBM E-score of 8-mer
1,ATAGGGGC,-0.213 ± 0.0011
2,AAACTGGA,-0.0747 ± 0.033
3,CATTACAA,-0.169 ± 0.045
4,TCAACCGA,-0.0626 ± 0.069
5,CAGTATGG,-0.28 ± 0.043
6,CGATCGTC,0.101 ± 0.04
7,CCACAGTC,0.106 ± 0.036
8,CAGCGTAA,-0.053 ± 0.0028
9,AAACATAT,-0.0243 ± 0.006
10,AAGTGCCA,0.4045 ± 0.0038
11,GTTGTGGA,0.0677 ± 0.047
12,CGAAAAAC,0.0208 ± 0.028
13,GGATGCAA,-0.068 ± 0.01
14,CCCGTCCC,-0.148 ± 0.028
15,CGAGCATA,0.115 ± 0.027
16,GTAACTGA,0.0238 ± 0.12
17,CAAGGCTC,-0.14 ± 0.04
18,AGGTAGGA,-0.154 ± 0.047
19,GACCTAAA,-0.117 ± 0.041
20,GAAAGCAA,-0.0479 ± 0.068
21,ACACGATA,0.0502 ± 0.0083
22,TGGTCCAA,-0.227 ± 0.05
23,CTAGGGAG,-0.232 ± 0.037
24,ACCTTAGC,0.211 ± 0.014
25,CCGTAAGA,-0.193 ± 0.068

row,Sequence,PBM E-score of 8-mer
1,CTAGAACA,-0.0343 ± 0.012
2,AACCCCGA,-0.291 ± 0.066
3,TGAGCGAA,0.126 ± 0.1
4,GGGCCCCC,-0.275 ± 0.037
5,AGCGTACG,-0.105 ± 0.047
6,AGGGTCAT,-0.0914 ± 0.015
7,AACGTCGT,-0.0793 ± 0.016
8,GTGTAGTA,0.0211 ± 0.026
9,CTGGCTGA,-0.177 ± 0.019
10,AGTCGCAA,0.132 ± 0.0059
11,ATTAATAG,-0.0401 ± 0.09
12,CCCACCAA,-0.0327 ± 0.016
13,AAGGCCCT,-0.175 ± 0.06
14,CTCAAAGC,-0.123 ± 0.062
15,AGTTGGAA,-0.116 ± 0.06
16,AATCGGTA,-0.203 ± 0.016
17,TCACCTAA,0.301 ± 0.018
18,CATTCGCA,0.384 ± 0.0068
19,GAATGTGA,0.275 ± 0.024
20,GAGAGCTC,-0.132 ± 0.08
21,AGATCCAG,-0.0581 ± 0.055
22,ATCAGTTC,0.00551 ± 0.05
23,AATCGCGT,0.194 ± 0.039
24,CTCCACTA,0.0717 ± 0.054
25,CGCCAGCA,0.0539 ± 0.1

row,Sequence,PBM E-score of 8-mer
1,TATATGCA,-0.113 ± 0.014
2,GTAGTAGA,-0.226 ± 0.0061
3,CAACAACA,0.243 ± 0.087
4,CAGTGGAC,-0.134 ± 0.018
5,CGGAGCAG,0.0439 ± 0.035
6,ATGCCTCA,-0.199 ± 0.051
7,GCTGGCGA,0.0541 ± 0.0059
8,TAGTCGAA,-0.00342 ± 0.047
9,AGTACGAA,0.00453 ± 0.015
10,CGGCGAGA,0.0865 ± 0.029
11,ATGCCACC,0.276 ± 0.036
12,CTACATAC,-0.181 ± 0.086
13,ATTATAGC,-0.13 ± 0.028
14,CCTGCATC,-0.2 ± 0.0089
15,AATGCCAG,-0.252 ± 0.051
16,ACGATACT,0.0112 ± 0.024
17,ATGCGTAG,-0.11 ± 0.011
18,GATTTAAC,-0.144 ± 0.031
19,CTACGGCA,-0.152 ± 0.041
20,GTCGTTCA,0.213 ± 0.0094
21,CCGGCCAA,-0.208 ± 0.042
22,GGTTTCTA,-0.145 ± 0.013

# Reference: the supplement of paper PMC4166925
